This note sets out measurements from the supplement of paper PMC8728848.

The full list was thinned out, with the strongest signals kept by preference.

Holding throughout (assay): glycan array binding signal (z-score within array); higher = stronger binding
Settings in all cases: glycan notation: IUPAC condensed, linker removed

In assay [1] the test system is Gal(b1-4)GlcNAc(b1-3)Gal(b1-4)GlcNAc(b1-3)Gal(b1-4)GlcNAc(b1-3)Gal(b1-4)GlcNAc(b1-2)Man(a1-3)[Gal(b1-4)GlcNAc(b1-3)Gal(b1-4)GlcNAc(b1-3)Gal(b1-4)GlcNAc(b1-3)Gal(b1-4)GlcNAc(b1-2)Man(a1-6)]Man(b1-4)GlcNAc(b1-4)[Fuc(a1-6)]GlcNAc. In short, it runs like this:
(§1)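 Glycan array data came from 3228 arrays in the Consortium for Functional Glycomics database, and only arrays with an available protein sequence were kept. Glycan names were put into IUPAC-condensed notation, and columns mapping to the same glycan were averaged. The binding signal is a within-array Z-score, averaged across arrays of one protein sequence run at different concentrations or buffers and across linkers. A negative Z-score can be read as non-binding.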

Assay [2] concerns Gal(b1-4)GlcNAc(b1-3)Gal(b1-4)GlcNAc(b1-3)Gal(b1-4)GlcNAc(b1-3)Gal(b1-4)GlcNAc(b1-3)Gal(b1-4)GlcNAc(b1-2)Man(a1-3)[Gal(b1-4)GlcNAc(b1-3)Gal(b1-4)GlcNAc(b1-3)Gal(b1-4)GlcNAc(b1-3)Gal(b1-4)GlcNAc(b1-3)Gal(b1-4)GlcNAc(b1-2)Man(a1-6)]Man(b1-4)GlcNAc(b1-4)GlcNAc. The essentials:
as §1

Assay [3] has as its system Gal(b1-4)GlcNAc(b1-3)Gal(b1-4)GlcNAc(b1-3)Gal(b1-4)GlcNAc(b1-3)Gal(b1-4)GlcNAc(b1-3)Gal(b1-4)GlcNAc(b1-2)Man(a1-3)[Gal(b1-4)GlcNAc(b1-3)Gal(b1-4)GlcNAc(b1-3)Gal(b1-4)GlcNAc(b1-3)Gal(b1-4)GlcNAc(b1-3)Gal(b1-4)GlcNAc(b1-2)Man(a1-6)]Man(b1-4)GlcNAc(b1-4)[Fuc(a1-6)]GlcNAc. In short, it runs like this:
as §1

In assay [4] the test system is Gal(b1-4)GlcNAc(b1-3)Gal(b1-4)GlcNAc(b1-3)Gal(b1-4)GlcNAc(b1-3)Gal(b1-4)GlcNAc(b1-3)Gal(b1-4)GlcNAc(b1-3)Gal(b1-4)GlcNAc(b1-2)Man(a1-3)[Gal(b1-4)GlcNAc(b1-3)Gal(b1-4)GlcNAc(b1-3)Gal(b1-4)GlcNAc(b1-3)Gal(b1-4)GlcNAc(b1-3)Gal(b1-4)GlcNAc(b1-3)Gal(b1-4)GlcNAc(b1-2)Man(a1-6)]Man(b1-4)GlcNAc(b1-4)GlcNAc. In short, it runs like this: as §1
In assay [5] the test system is Gal(b1-4)GlcNAc(b1-3)Gal(b1-4)GlcNAc(b1-3)Gal(b1-4)GlcNAc. The essentials: as §1
Assay [6] deals with Gal(b1-4)GlcNAc(b1-6)GalNAc. The essentials:
as §1

In assay [7] the test system is Gal(b1-4)GlcNAc6P. The essentials:
as §1

The test system of assay [8] is Gal3S(b1-3)GlcNAc. The essentials: as §1
Assay [9] relates to Gal(b1-4)GlcNAc(b1-3)Gal(b1-4)GlcNAc. The essentials: as §1
The subject of assay [10] is Gal(b1-4)GlcNAc(b1-3)GalNAc. The essentials: as §1
The test system of assay [11] is Gal(b1-4)GlcNAc(b1-6)[Gal(b1-3)]GalNAc. In short, it runs like this: as §1
Assay [12] relates to Gal(b1-4)GlcNAc(b1-3)[Gal(b1-4)GlcNAc(b1-6)]Gal(b1-4)GlcNAc. In short, it runs like this:
as §1

Assay [13] relates to Gal(b1-4)GlcNAc(b1-3)[GlcNAc(b1-6)]Gal(b1-4)GlcNAc. The essentials: as §1
The test system of assay [14] is Gal(b1-4)GlcNAc(b1-6)[Gal(b1-3)]GlcNAc. The essentials:
as §1

Assay [15] concerns Gal(b1-4)Glc. In short, it runs like this:
as §1

Take “Gal 3 (Homo sapiens) (chain not printed)”: the “glycan array binding signal (z-score)” value was 3.46 in assay [1]; 7.49 in [2]; 5.01 in assay [3]; 3.79 in assay [4]; 3.18 in assay [5]; -0.222 in assay [6]. The “glycan array binding signal (z-score)” value in [7] was -0.174.
In the case of “Meso764 (Homo sapiens) (chain not printed)”, the “glycan array binding signal (z-score)” value in [3] was 4.03; in [4] it was 1.71.
Take “Angiogenin (Homo sapiens) (chain not printed)”: the “glycan array binding signal (z-score)” value in [5] was 0.397; in assay [8], -0.271.
Regarding “Gal 8-short (Homo sapiens) (chain not printed)”, the “glycan array binding signal (z-score)” value in [9] was determined as 1.73.
Turning to FGF2 (chain not printed), in assay [10], the “glycan array binding signal (z-score)” value was -0.316.
As to “Galectin-8 C-terminal CRD (Homo sapiens) (chain not printed)”, the figures for the “glycan array binding signal (z-score)” value in assay [10] and in assay [11] were -0.342 and -0.348, respectively.
Regarding “L-Ficolin (Homo sapiens) (chain not printed)”, in assay [12], the “glycan array binding signal (z-score)” value is -0.453.
Take MBP (Homo sapiens) (chain not printed): the “glycan array binding signal (z-score)” value in [13] is -0.502.
Take “H-Ficolin (Homo sapiens) (chain not printed)”: the “glycan array binding signal (z-score)” value in assay [6] was -0.247; in [14], -0.73.
Turning to “Gal 8 long (Homo sapiens) (chain not printed)”, the “glycan array binding signal (z-score)” value in [11] was -0.33.
For “Thrombomodulin Extracellular (Homo sapiens) (chain not printed)”, the “glycan array binding signal (z-score)” value in assay [15] worked out at 0.236.
With “M-Ficolin G221F (Homo sapiens) (chain not printed)”, the “glycan array binding signal (z-score)” value in assay [15] was -0.161.
As to “M-Ficolin (Homo sapiens) (chain not printed)”, in assay [8], the “glycan array binding signal (z-score)” value is -0.011.
